{"source": "PubChem BioAssay AID1476", "about": "(National Center for Advancing Translational Sciences (NCATS), 2009)", "note": "Out of some 200,000 compounds screened, about 4,500 (2.2%) were called active. This list was built around the results that the source calls inconclusive (neither active nor inactive); the mix of calls is not that of the screen. The call rests on the fitted dose curve; in most records, active means well fitted inhibition curve with a large enough effect; inconclusive means small, poorly fitted or top-dose-only effect, or effect the other way; inactive means flat fitted curve, though single readings scatter. Potencies of inconclusive entries are doubtful fits and often do not repeat. Potency means the concentration at half of the fitted maximal effect; tags describe the fitted curve by direction and shape."}
{"target": "Cruzipain (Trypanosoma cruzi) (UniProt P25779)", "sequence (P25779 whole entry, looked up)": "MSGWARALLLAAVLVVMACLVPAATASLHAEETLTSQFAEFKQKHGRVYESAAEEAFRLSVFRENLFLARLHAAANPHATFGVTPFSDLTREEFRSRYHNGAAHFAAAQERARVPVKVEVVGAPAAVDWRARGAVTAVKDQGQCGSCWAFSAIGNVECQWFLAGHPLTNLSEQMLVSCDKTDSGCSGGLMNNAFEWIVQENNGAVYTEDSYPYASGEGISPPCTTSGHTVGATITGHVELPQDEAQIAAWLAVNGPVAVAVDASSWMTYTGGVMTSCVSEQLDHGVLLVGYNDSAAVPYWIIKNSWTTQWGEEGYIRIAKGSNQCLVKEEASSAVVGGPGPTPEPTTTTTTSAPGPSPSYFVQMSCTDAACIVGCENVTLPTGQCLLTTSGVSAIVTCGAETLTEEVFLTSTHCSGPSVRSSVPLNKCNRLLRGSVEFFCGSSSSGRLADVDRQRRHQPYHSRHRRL", "test": "qHTS Assay for Promiscuous and Specific Inhibitors of Cruzain (without detergent); further: nearly all actives have a fitted effect of over 40% in size;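 on max response, negative = inhibition: plate controls were enzyme without inhibitor for no effect and buffer without enzyme for full effect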", "details": "purified cruzain, Z-FR-AMC fluorescence, no detergent", "in_short": "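Purified cruzain at 1.5 nM, pre-incubated 15 min with compound at room temperature in 100 mM sodium acetate pH 5.5, 5 mM DTT, 0.00005% Triton X-100. Reaction started with 2 uM Z-FR-AMC; AMC fluorescence increase over 60 s gives rate.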"}
{"smiles": "COc1ccc(CNc2nc(-c3c(C)noc3C)nc3ccccc23)c(OC)c1", "max response, negative = inhibition": "inactive: 19.4%"}
{"smiles": "C=C(C)Cn1c(CCCNC(=O)CC)nc2ccccc21", "max response, negative = inhibition": "inactive: 5.84%"}
{"smiles": "C[C@H](CCC(=O)O)C[C@H](C)C[C@H](C)C(=O)/C=C(\\O)[C@H](C)C[C@H](C)C/C=C/[C@@H](C)[C@@H](O)[C@@H](C)[C@@H](O)C[C@@H]1CC[C@@](C)([C@H]2CC[C@@](C)([C@@H](C)O)O2)O1", "Potency": "inconclusive: 6.31 µM [activator, single point]"}
{"smiles": "O=C(O)c1cccc(C[C@H](Br)C(=O)O)c1", "max response, negative = inhibition": "inactive: 10.8%"}
{"smiles": "Cc1nc2cc(-c3ccc(Cl)cc3)nn2c(C)c1CCC(=O)NCc1ccco1", "Potency": "inconclusive: 31.6 µM [activator, single point]"}
{"smiles": "CC1NC(=O)NC1CCCCCC(=O)NCCc1ccccc1", "note": "(stereo unspecified)", "Potency": "inconclusive: 25.1 µM [activator, single point]"}
{"smiles": "COc1ccc(C2C3=C(N=C4SCC(=O)N42)c2ccccc2CC3)cc1", "note": "(stereo unspecified)", "Potency": "inconclusive: 31.6 µM [inhibitor, single point]"}
{"smiles": "O=C(N/N=C/c1cccc([N+](=O)[O-])c1)c1cc2c(ccc3ccccc32)o1", "Potency": "active: 10 µM"}
{"smiles": "CC12CCC(c3c(C(=O)Nc4nccs4)nn(-c4ccccc4)c31)C2(C)C", "note": "(stereo unspecified)", "Potency": "inconclusive: 31.6 µM [inhibitor, single point]"}
{"smiles": "COCc1c(Br)c(C)nc(OCC(=O)N/N=C/c2cc(C)n(-c3ccc([N+](=O)[O-])cc3)c2C)c1C#N", "Potency": "active: 31.6 µM"}
{"smiles": "O=[N+]([O-])c1ccc(O)c(/C=N/Nc2ccccn2)c1", "Potency": "inconclusive: 39.8 µM [inhibitor, single point]"}
{"smiles": "O=C(COC(=O)c1cccc(S(=O)(=O)N2CCc3ccccc32)c1)Nc1ccc(Cl)cn1", "Potency": "inconclusive: 39.8 µM [inhibitor, single point]"}
{"smiles": "CC(C)(C)OC(=O)COc1cc(OCC(=O)OC(C)(C)C)c2c(=O)cc(-c3ccccc3)oc2c1", "Potency": "inconclusive: 25.1 µM [activator, partial curve]"}
{"smiles": "O=C(Oc1ccc(Cl)cc1)c1ccc(COC(=O)c2cnccn2)cc1", "Potency": "inconclusive: 39.8 µM [activator, single point]"}
{"smiles": "CN(CC(=O)NCc1ccccc1Cl)S(=O)(=O)c1ccc2c(c1)c(=O)n(C)c(=O)n2C", "max response, negative = inhibition": "inactive: -12.5%"}
{"smiles": "Cc1ccccc1-n1c(SCC(=O)c2cc(C)n(C)c2C)nnc1-c1ccncc1", "Potency": "inconclusive: 39.8 µM [activator, single point]"}
{"smiles": "COc1ccc(C(=O)N2CC(=O)Nc3ccc(C)cc3C2c2ccc(F)cc2)c(OC)c1", "note": "(stereo unspecified)", "max response, negative = inhibition": "inactive: -4.06%"}
{"smiles": "O=C(/C=C/c1ccc([N+](=O)[O-])cc1)OCC(=O)N1c2ccccc2Sc2ccccc21", "Potency": "inconclusive: 25.1 µM [inhibitor, single point]"}
{"smiles": "CS(=O)(=O)N1CCN(c2ccc(NC(=O)c3ccc(Br)o3)cc2)CC1", "Potency": "inconclusive: 25.1 µM [inhibitor, single point]"}
{"smiles": "CCc1ccccc1OCCSc1nc(-c2cccs2)nc2cc(=O)[nH]n12", "Potency": "active: 3.16 µM"}
{"smiles": "O=C(CSc1nnc(CN2CCOCC2)n1-c1ccc(Cl)cc1)Nc1ccc2c(c1)OCO2", "Potency": "inconclusive: 31.6 µM [activator, single point]"}
{"smiles": "Cn1cccc1C(=O)N1CCC2(CCCN(Cc3ccccc3)C2)CC1", "max response, negative = inhibition": "inactive: 2.85%"}
{"smiles": "CCOC(=O)c1cc(-c2ccccc2)n(CCC(=O)N2CCN(c3ccccn3)CC2)c1C", "Potency": "inconclusive: 31.6 µM [activator, single point]"}
{"smiles": "Cc1ccc(C(C)C)c(OCC(=O)Nc2cccc(-c3nc4ncccc4o3)c2)c1", "Potency": "inconclusive: 31.6 µM [activator, single point]"}
{"smiles": "O=c1[nH]c2ccc(NCc3ccc(-c4ccccc4F)o3)cc2[nH]1", "Potency": "inconclusive: 39.8 µM [inhibitor, single point]"}
{"smiles": "O=C(Nc1nnc(C2CCCO2)s1)c1ccc(Br)cc1", "note": "(stereo unspecified)", "Potency": "inconclusive: 31.6 µM [inhibitor, single point]"}
{"smiles": "Cc1ccc(S(=O)(=O)c2nc(-c3ccco3)oc2NCC2CCCO2)cc1", "note": "(stereo unspecified)", "Potency": "active: 10 µM"}
{"smiles": "CC(NC(=O)CSc1nnc(-c2cc3cc(Cl)ccc3o2)n1C)c1ccccc1", "note": "(stereo unspecified)", "Potency": "inconclusive: 0.158 µM [inhibitor, single point]"}
{"smiles": "Cc1ccc(-c2nnn(CC(=O)NC3CCN(Cc4ccccc4)CC3)n2)cc1", "max response, negative = inhibition": "inactive: 9.22%"}
{"smiles": "Cc1ccnc(NS(=O)(=O)c2ccc(NC(=O)C34CC5CC(C)(CC(C)(C5)C3)C4)cc2)n1", "Potency": "inconclusive: 39.8 µM [activator, single point]"}
{"smiles": "Cc1cc(C)cc(-n2c(O)c(C=Nc3ccc(N4CCOCC4)cc3)c(=O)[nH]c2=S)c1", "Potency": "inconclusive: 25.1 µM [activator, partial curve]"}
{"smiles": "COc1ccc(-c2nnc(-c3cc(OC)c(OC)c(OC)c3)o2)cc1OC", "Potency": "inconclusive: 31.6 µM [activator, single point]"}
{"smiles": "Cc1ccc(OCC(=O)N(Cc2ccc(Cl)cc2)CC2CCCO2)cc1C", "note": "(stereo unspecified)", "max response, negative = inhibition": "inactive: 29.1%"}
{"smiles": "COc1cc(OC)c(OC)cc1CN(C)C(c1ccccc1)c1nnnn1-c1ccccc1C", "note": "(stereo unspecified)", "Potency": "inconclusive: 31.6 µM [activator, single point]"}
{"smiles": "Cc1ccc2c(C)c(C(=O)N3CCC(c4nc5ccccc5s4)CC3)oc2c1C", "max response, negative = inhibition": "inactive: 3.5%"}
{"smiles": "O=C(Nc1ccccc1C(F)(F)F)Nc1c[nH]c(=O)[nH]c1=O", "max response, negative = inhibition": "inactive: -17.4%"}
{"smiles": "CCN(CC)S(=O)(=O)c1cccc(-c2nnc(SCC(=O)NC)n2CCc2ccccc2)c1", "Potency": "inconclusive: 39.8 µM [activator, single point]"}
{"smiles": "CS(C)(=O)=O", "max response, negative = inhibition": "inactive: 0.0027%"}
{"smiles": "O=S(=O)(/N=C(/Nc1cccc2ccccc12)c1ccccc1)c1cccs1", "max response, negative = inhibition": "inactive: -0.293%"}
{"smiles": "CCN(CC)c1ccc(C(=O)Nc2ccc3nc(N(CC)CC)cc(C)c3c2)cc1", "max response, negative = inhibition": "inactive: -7.68%"}
{"smiles": "CCOC(=O)C1CCCN(C(=O)Cn2ncc3c4ccccc4n(Cc4ccc(F)cc4)c3c2=O)C1", "note": "(stereo unspecified)", "Potency": "inconclusive: 25.1 µM [activator, partial curve]"}
{"smiles": "CCc1nc2ccc(C(=O)N3CCN(c4cccc(OC)c4)CC3)cc2nc1CC", "Potency": "inconclusive: 31.6 µM [activator, single point]"}
{"smiles": "c1ccc(Nc2nc(N3CCOCC3)nc(N3CCOCC3)n2)cc1", "max response, negative = inhibition": "inactive: -4.74%"}
{"smiles": "COc1ccc(/C=N/Nc2nc(Nc3ccccc3)nc(N3CCCCC3)n2)c(OC)c1", "Potency": "inconclusive: 39.8 µM [inhibitor, single point]"}
{"smiles": "COc1cc2c(cc1OC)C(COc1cc(C)cc(C)c1)N(C(=O)c1ccc(S(=O)(=O)N3CCCC3)cc1)CC2", "note": "(stereo unspecified)", "Potency": "inconclusive: 10 µM [activator, partial curve]"}
{"smiles": "COC(=O)c1ccc(CNC(=O)c2nc(Cn3nc(C)c(Br)c3C)no2)cc1", "Potency": "inconclusive: 25.1 µM [activator, single point]"}
{"smiles": "Cc1ccccc1-n1c(SCc2csc(Nc3ccccc3)n2)nnc1-c1cccnc1", "Potency": "inconclusive: 39.8 µM [inhibitor, single point]"}
{"smiles": "NNC(=O)CNC(c1ccccc1)c1cc(Br)ccc1NC(=O)c1ccc(Br)cc1", "note": "(stereo unspecified)", "max response, negative = inhibition": "inactive: -19.3%"}
{"smiles": "CCOC(=O)c1oc2ccccc2c1NC(=O)COc1ccc(F)cc1", "Potency": "active: 12.6 µM"}
{"smiles": "COc1ccc(NC(=O)COC(=O)c2ccc(OCc3ccc(Cl)cc3Cl)c(OC)c2)c(OC)c1", "Potency": "inconclusive: 25.1 µM [inhibitor, single point]"}
{"smiles": "O=C(CCCCCn1c(=O)[nH]c2ccccc2c1=O)N1CCN(c2ccc(Cl)cc2)CC1", "max response, negative = inhibition": "inactive: 18.4%"}
{"smiles": "COc1ccc(-c2nc(C)c(CCNC(=O)c3ccco3)s2)cc1", "max response, negative = inhibition": "inactive: -0.237%"}
{"smiles": "OCC1OC([S-])[C@H](O)C(O)C1O.[Au+]", "note": "(stereo partly specified)", "max response, negative = inhibition": "inactive: 12.1%"}
{"smiles": "Cc1ccc2nc(-c3ccc(N)cc3)sc2c1S(=O)(=O)O", "Potency": "active: 20 µM"}
{"smiles": "CCOc1ccccc1CN1C(=O)c2ccccc2C1C(=O)NC1CCCCCC1", "note": "(stereo unspecified)", "Potency": "inconclusive: 39.8 µM [activator, single point]"}
{"smiles": "O=C(CC1N=C2c3ccccc3N=C(SCc3ccc(F)cc3)N2C1=O)NCc1ccco1", "note": "(stereo unspecified)", "Potency": "inconclusive: 6.31 µM [inhibitor, single point]"}
{"smiles": "CCn1c(C)c(/C=N/Nc2nc3ccccc3s2)c2ccccc21", "Potency": "active: 12.6 µM"}
{"smiles": "CC1(C)Cc2ccccc2-c2nc(NCCCO)n(-c3ccccc3)c(=O)c21", "Potency": "inconclusive: 31.6 µM [activator, partial curve]"}
{"smiles": "Cc1ccc(S(=O)(=O)C(C#N)c2nc3ccccc3nc2N2CCN(C)CC2)cc1C", "note": "(stereo unspecified)", "Potency": "inconclusive: 31.6 µM [activator, single point]"}
{"smiles": "O=c1c(Cl)nc2cc(Cl)ccc2n1CCNc1ncc(C(F)(F)F)cc1Cl", "Potency": "inconclusive: 25.1 µM [activator, partial curve]"}
{"smiles": "Cc1ccc(-c2noc(CN(C3CCCCC3)S(=O)(=O)c3ccc(F)cc3)n2)cc1", "max response, negative = inhibition": "inactive: -20.5%"}
{"smiles": "Cc1nnc(C)c2c(C)n(Cc3ccc4c(c3)OCO4)c(C)c12", "Potency": "inconclusive: 25.1 µM [inhibitor, single point]"}
{"smiles": "Cc1ccc(C)c(NC(=O)Cn2c(=O)n(Cc3nc(C)no3)c(=O)c3cc4c(cc32)OCO4)c1", "max response, negative = inhibition": "inactive: 19.5%"}
{"smiles": "COc1ccc(/C=C2\\Sc3ccc(C(=O)N4CCc5ccccc5C4)cc3N(C)C2=O)cc1", "Potency": "inconclusive: 39.8 µM [inhibitor, single point]"}
{"smiles": "CNc1nc(Nc2ccc(Br)cc2)nc(N)c1[N+](=O)[O-]", "Potency": "inconclusive: 25.1 µM [inhibitor, single point]"}
{"smiles": "CCC(C)NC(=O)CSc1nnc(-c2cc(-c3ccc(C)cc3)nc3ccccc23)n1N", "note": "(stereo unspecified)", "Potency": "inconclusive: 39.8 µM [activator, single point]"}
